Data taken from PubChem BioAssay AID2546 (National Center for Advancing Translational Sciences (NCATS), 2010).
Hit rate of the full screen: of about 310,000 compounds, about 11,000 (3.5%) were called active. The shares of active, inactive and inconclusive entries below differ from those in the screen. The call rests on the fitted dose curve; in most records, active means well fitted inhibition curve with a large enough effect; inconclusive means small, poorly fitted or top-dose-only effect, or effect the other way; inactive means flat fitted curve, though single readings scatter. No potency is given beside an inconclusive call; the fits are too rough.

Test: VP16 counterscreen qHTS for inhibitors of ROR gamma transcriptional activity;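 further: Gal4-VP16 expression switched on by copper sulfate through the metallothionein promoter; nearly all actives have a fitted effect of over 50% in size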
Conditions: Drosophila S2 Gal4-VP16 UAS-luciferase, luminescence, 20 h; activity, negative = inhibition: at 53.6 µM (top of the series)
On the % scale 0 is the no-effect control and ±100 the full control effect; potency means the concentration at half of the fitted maximal effect; tags describe the fitted curve by direction and shape.

Row | SMILES | Potency | activity, negative = inhibition
1 | CC1CCCN(c2ccc3nc4ccccc4c(=O)n3n2)C1 (stereo unspecified) | active: 4.47 µM | –
2 | CCOc1ccccc1NC(=O)C(=O)N/N=C/c1cc(Br)ccc1O | inconclusive [inhibitor, single point] | –
3 | COc1ccc(C(=O)/C=C/Nc2ccc(S(=O)(=O)Nc3cccc(C(C)=O)c3)cc2)cc1 | active: 5.62 µM | –
4 | c1ccc(CCNC2=NCCCS2)cc1 | inactive | –
5 | CC(C)(C)c1ccc(S(=O)(=O)/C=C\C#N)cc1 | active: 0.794 µM | –
6 | COc1ccc(NC(=O)C2CCN(S(=O)(=O)c3cccc4cccnc34)CC2)cc1 | inconclusive [inhibitor, single point] | –
7 | Nc1c(NCc2ccccc2)c(=O)[nH]c(=O)n1Cc1ccccc1 | inactive | –
8 | COc1ccccc1CNC(=O)C1CCN(S(=O)(=O)N2CCCCC2)CC1 | – | inactive: -3.07% [at 0.365 µM]
9 | Cc1ccc2nc(-c3ccc(NC(=O)CN4C(=O)c5ccccc5C4=O)cc3)sc2c1 | inconclusive [inhibitor, single point] | –
10 | COC(=O)c1cc(OC)c(OC)cc1NC(=S)Nc1cc(Cl)ccc1OC | active: 1.41 µM | –
11 | C=CCN1C(=O)NC(c2ccc(OC)cc2)(C(F)(F)F)S/C1=C(\C#N)c1nnc(N2CCOCC2)n1-c1ccccc1 (stereo unspecified) | active: 12.6 µM | –
12 | O=C(NC(=S)Nc1ccccc1C(=O)O)c1cncc(Br)c1 | inactive | –
13 | O=C(CCc1ccccc1)NNC(=S)NCCc1ccccc1 | inconclusive [inhibitor, single point] | –
14 | CCN=C1SC(C(=O)Nc2cccc(Br)c2)CC(=O)N1CC (stereo unspecified) | inactive | –
15 | CC1CCCCN1C(=O)CSc1nnc(-c2ccccc2O)o1 (stereo unspecified) | inconclusive [inhibitor, single point] | –
16 | CCc1ccc(-c2ccc(C(=O)O)cc2)nc1 | inconclusive [inhibitor, full curve, poor fit] | –
17 | Cc1onc(C(=O)Nc2cccc(C(F)(F)F)c2)c1[N+](=O)[O-] | inconclusive [inhibitor, single point] | –
18 | C=CCOc1ccccc1/C=c1\sc2nc(=O)c(C)nn2c1=O | inactive | –
19 | CCCn1c(N2CCN(Cc3ccc(Cl)cc3)CC2)nc2ccccc21 | inconclusive [inhibitor, partial curve, poor fit] | –
20 | C/C(=N\NC(=O)c1ccccc1F)c1ccccn1 | active: 1.12 µM | –
21 | COc1cccc(-c2nc(Nc3ccncc3)c3ccccc3n2)c1 | inconclusive [inhibitor, partial curve, poor fit] | –
22 | Cc1ccc(C(=O)NC(=S)N(C)C2CCCCC2)cc1Br | active: 0.501 µM | –
23 | COC(=O)/C=C/c1ccc(C(=O)NCC(=O)N[C@@H](CCC(=O)OC)C(=O)N[C@@H](CC(C)C)C(N)=O)cc1 | inactive | –
24 | CN(C)c1ccc(/C=N/NC(=S)NCc2ccccc2)cc1 | active: 2.82 µM | –
25 | CCc1noc(C)c1C(=O)Nc1cccc2ncccc12 | inconclusive [inhibitor, single point] | –
26 | O=C(NCc1ccncc1)NC12CC3CC(CC(C3)C1)C2 | inactive | –

Row | SMILES | Potency | activity, negative = inhibition
27 | CCOC(=O)c1ccc(NC(=O)C(=O)NCC2(c3ccc(OC)cc3)CCOCC2)cc1 | inconclusive [inhibitor, single point] | –
28 | Cc1noc2ncnc(Sc3c(Cl)cccc3Cl)c12 | active: 15.8 µM | –
29 | O=C(Nc1cnccc1C(F)(F)F)NC1CCCCC1 | inactive | –
30 | O=c1c2[nH]c3ccc(F)cc3c2ncn1CCC1=CCCCC1 | inactive | –
31 | C=CC(C1=CC(=O)C(OC)=CC1=O)c1ccccc1 (stereo unspecified) | inconclusive [inhibitor, single point] | –
32 | Cc1ccc(NC(=O)NN2CCOCC2)cc1 | inactive | –
33 | Cc1ccc2c(Cl)c(C)c(N3CCCC3)nc2n1 | active: 11.2 µM | –
34 | CCC(O)C1CCN(Cc2cn(Cc3ccccc3)nc2-c2cc3ccccc3o2)CC1 (stereo unspecified) | inconclusive [inhibitor, single point] | –
35 | CC(C)Oc1ccc(CNS(=O)(=O)c2csc(C(N)=O)c2)cc1 | inconclusive [inhibitor, single point] | –
36 | COc1cc(CNc2ccc3[nH]c(=O)[nH]c3c2)ccc1OCc1ccc(C)cc1 | inconclusive [inhibitor, single point] | –
37 | O=C(N/N=C1/C[C@@H](O)[C@@H](O)[C@@H]2[C@H]3C(=O)N(c4ccc(F)cc4F)C(=O)[C@@H]3CC[C@H]12)OCc1ccccc1 | – | inactive: -4.41% [at 10 µM]
38 | O=c1c(-c2ccccc2)nc2cnc(N3CCOCC3)nc2n1C[C@H]1CCCO1 | inactive | –
39 | Cn1c(COc2ccccc2)nnc1SCc1nc2ccccc2[nH]1 | inactive | –
40 | O=Cc1cn(-c2ccccc2)nc1-c1ccccc1 | inactive | –
41 | NS(=O)(=O)c1ccc(Nc2ncccc2[N+](=O)[O-])cc1 | inconclusive [activator, single point] | –
42 | CCOc1ccc(OCc2ccc(C(=O)Nc3ccc(Cl)cn3)o2)cc1 | inconclusive [activator, single point] | –
43 | CCN(CC)S(=O)(=O)c1cccc(C(=O)Nc2ccccc2)c1 | inconclusive [activator, partial curve] | –
44 | Cn1nc([N+](=O)[O-])c(C(C#N)c2ccccn2)c(Cl)c1=O (stereo unspecified) | inconclusive [inhibitor, single point] | –
45 | Cc1cc(C)cc(S(=O)(=O)c2cnc3ccccc3n2)c1 | inconclusive [inhibitor, single point] | –
46 | Cc1ccc(Cc2nc(-c3ccncc3)no2)cc1 | inactive | –
47 | CC(=O)c1c(C(C)=O)c(C)n(Cc2ccc(Cl)cc2)c1C | inactive | –
48 | NNC(=O)c1sc2cc(C(F)(F)F)cnc2c1-c1cccnc1 | inconclusive [inhibitor, single point] | –
49 | C=CCN(c1ccccc1)S(=O)(=O)c1cccc(C(=O)N2CC(C)CC(C)C2)c1 (stereo unspecified) | inactive | –
50 | Fc1ccccc1NC(=S)NCc1ccc(Cl)cc1 | inconclusive [inhibitor, single point] | –
51 | Fc1ccccc1Nc1nc2c(s1)CCc1ccccc1-2 | inconclusive [inhibitor, single point] | –
52 | Cc1c(C(=O)Nc2nc3ccccc3[nH]2)oc2c(Cl)cccc12 | active: 6.31 µM | –

Row | SMILES | Potency | activity, negative = inhibition
53 | O=C(NC(=S)Nc1cccc(Cl)c1N1CCCCC1)c1cccs1 | inconclusive [inhibitor, single point] | –
54 | O=C(CSC(=S)N1CCCC1)c1ccccc1 | inconclusive [inhibitor, single point] | –
55 | COc1cc(O)c(C(CCN2CCCC2)c2ccc(N(C)C)cc2)c(OC)c1 (stereo unspecified) | inconclusive [inhibitor, single point] | –
56 | CCc1cc2c(=O)c(-c3nc4ccccc4n3C)coc2c(CN2CCOCC2)c1O | inconclusive [inhibitor, single point] | –
57 | CC(C)C[C@H](N)c1nnc(S(=O)(=O)Cc2cccc(F)c2)o1 | inconclusive [inhibitor, single point] | –
58 | COc1cccc(NC(=O)Nc2nc(-c3ccc(OC)c(OC)c3)cs2)c1 | inconclusive [inhibitor, single point] | –
59 | CCc1nnc(NC(=O)CSc2ncc(-c3ccccc3)n2C)s1 | inconclusive [inhibitor, single point] | –
60 | O=C(CCCSc1ccccc1)Nc1nc(-c2ccccn2)cs1 | inconclusive [inhibitor, single point] | –
61 | COc1cc(NC(=O)c2ccc(Br)cc2)c(OC)cc1NC(=O)c1ccccc1 | inconclusive [inhibitor, partial curve] | –
62 | CCOC(=O)C(C(=O)OCC)c1cc(Br)c2noc3c2c1C(=O)c1ccccc1-3 | inconclusive [inhibitor, single point] | –
63 | [O-]/C(=C(\C(=S)Nc1cccc2ccccc12)[n+]1ccccc1)c1ccc(Cl)s1 | inconclusive [inhibitor, partial curve] | –
64 | COc1ccc(/C=C2/SC(=S)N(CCCC(=O)Nc3ccc(O)cc3)C2=O)cc1 | active: 1.41 µM | –
65 | O=C(Cc1ccc(Cl)cc1)NC(=S)Nc1ccccc1N1CCOCC1 | active: 5.01 µM | –
66 | CN(CCOc1ccccc1)C(=O)CCc1nc2sc3c(c2c(=O)[nH]1)CCCC3 | inactive | –
67 | COc1ccccc1NC(c1cccnc1)c1ccc2cccnc2c1O (stereo unspecified) | inconclusive [inhibitor, single point] | –
68 | O=C(N/N=C/c1ccco1)c1ccncc1 | inconclusive [inhibitor, single point] | –
69 | CC(CN1CCCCC1)OC(=O)c1ccccc1Cl (stereo unspecified) | inconclusive [inhibitor, single point] | –
70 | CN(C)c1ccc(/C=C(/NC(=O)c2ccccc2Cl)C(=O)NCCN2CCOCC2)cc1 | inactive | –
71 | Cc1ccc2nc(NC(=S)NC(=O)c3ccco3)sc2c1 | active: 3.55 µM | –
72 | CC1(C)CC(=O)C(C=NCc2ccccn2)=C(O)C1 | active: 15.8 µM | –
73 | Cc1cccc(NC(=S)NNC(=O)Cc2ccccc2)c1 | inconclusive [inhibitor, single point] | –
74 | CC(C)c1ccc(CNNC(=O)c2ccccc2)cc1 | inconclusive [inhibitor, partial curve, poor fit] | –
75 | COCCNC(=S)NN=C1CCCCC1 | inconclusive [inhibitor, single point] | –
76 | CCOc1ccc(-c2n[nH]c(C)c2-c2ccccc2OC)c(O)c1 | inconclusive [inhibitor, full curve, poor fit] | –
